Substitutions are numbered along the chain they refer to.
B1: iPS:326414 (bispecific antibody, human IgG1, kappa, lambda)
light 1: DIQMTQSPSSLSASVGDRITITCRASQSISRYLNWYQQKPGKAPKLLIYAASSLQSGIPSRFSGSGSGTDFTLTINSLQPEDFATYFCQQSYSPPFTFGPGTKVDIKRTVAAPSVFIFPPSDEQLKSGTASVVCLLNNFYPREAKVQWKVDNALQSGNSQESVTEQDSKDSTYSLESTLTLSKADYEKHKVYACEVTHQGLSSPVTKSFNRGEC
heavy 1: QVQLQQSGPGLVKPSQTLSLTCAISGDSVSSNSATWNWIRQSPSRGLEWLGRTYYRSKWSNHYAVSVKSRITINPDTSKSQFSLQLNSVTPEDTAVYYCARGTWKQLWFLDHWGQGTLVTVSSASTKGPSVFPLAPSSKSTSGGTAALGCLVKDYFPEPVTVSWNSGALTSGVHTFPAVLQSSGLYSLKSVVTVPSSSLGTQTYICNVNHKPSNTKVDKKV[left out - human IgG1 Fc with changes]
light 2: QSVLTQPPSASGTPGQRVTISCSGSSSNIGSNYVYWYQQLPGAAPKLLIFRNNQRPSGVPDRFSGSKSGTSASLAISGLRSEDEADYYCAAWDDSLSGWVFGGGTKLTVLGQPKANPTVTLFPPSSEELQANKATLVCLISDFYPGAVTVAWKADGSPVKAGVETTKPSKQSNNKYAAKSYLSLTPEQWKSHRSYSCQVTHEGSTVEKTVAPTECS
heavy 2: [left out - about 100 residues]DRTGYSISWSSYYYYYGMDVWGQGTTVTVSSASTKGPSVFPLAPSSKSTSGGTAALGCLVKDYFPEPVTVSWNSGALTSGVHTFPAVLQSSGLYSLESVVTVPSSSLGTQTYICNVNHKPSNTKVDKKVEPKSCDKTHTCPPCPAPELLGGPSVFLFPPKPKDTLMISRTPEVTCVVVDVSHEDPEVKFNWYVDGVEVHNAKTKPCEEQYGSTYRCVSVLTVLHQDWLNGKEYKCKVSNKALPAPIEKTISKAKGQPREPQVYTLPPSRKEMTKNQVSLTCLVKGFYPSDIAVEWESNGQPENNYKTTPPVLKSDGSFFLYSKLTVDKSRWQQGNVFSCSVMHEALHNHYTQKSLSLSPGK
B2: iPS:327102 (bispecific antibody, human IgG1, kappa, lambda)
light 1: DIVMTQSPDSLAVSLGERATIHCKSSQSVLYSSNNKNFLTWYQQKPGQPPKLLIYRASTRESGVPDRFSGSGSGTDFTLTISSLQAEDVAVYFCQQYYSAPFTFGPGTRVDIKRTVAAPSVFIFPPSDEQLKSGTASVVCLLNNFYPREAKVQWKVDNALQSGNSQESVTEQDSKDSTYSLESTLTLSKADYEKHKVYACEVTHQGLSSPVTKSFNRGEC
heavy 1: QVQLQESGPGLVKPSQTLSLTCTVSGGSISSGGYYWSWIRQHPGKGLEWIGYIYYSGNTYYNPSLKSRVTISGDTSKNQFSLKLRSVTAADTAVYYCTRGGAARGMDVWGQGTTVTVSSASTKGPSVFPLAPSSKSTSGGTAALGCLVKDYFPEPVTVSWNSGALTSGVHTFPAVLQSSGLYSLKSVVTVPSSSLGTQTYICNVNHKPSNTKVDKKV[left out - human IgG1 Fc with changes]
light 2: B1 light 2
heavy 2: [left out - about 100 residues]DRTGYSISWSSYYYYYGMDVWGQGTTVTVSSASTKGPSVFPLAPSSKSTSGGTAALGCLVKDYFPEPVTVSWNSGALTSGVHTFPAVLQSSGLYSLESVVTVPSSSLGTQTYICNVNHKPSNTKVDKKVEPKSCDKTHTCPPCPAPELLGGPSVFLFPPKPKDTLMISRTPEVTCVVVDVSHEDPEVKFNWYVDGVEVHNAKTKPCEEQYGSTYRCVSVLTVLHQDWLNGKEYKCKVSNKALPAPIEKTISKAKGQPREPQVYTLPPSRKEMTKNQVSLTCLVKGFYPSDIAVEWESNGQPENNYKTTPPVLKSDGSFFLYSKLTVDKSRWQQGNVFSCSVMHEALHNHYTQKSLSLSPGK
B3: iPS:327109 (bispecific antibody, human IgG1, kappa, lambda, N297G)
light 1: B1 light 1
heavy 1: QVQLQQSGPGLVKPSQTLSLTCAISGDSVSSNSATWNWIRQSPSRGLEWLGRTYYRSKWSNHYAVSVKSRITINPDTSKSQFSLQLNSVTPEDTAVYYCARGTWKQLWFLDHWGQGTLVTVSSASTKGPSVFPLAPSSKSTSGGTAALGCLVKDYFPEPVTVSWNSGALTSGVHTFPAVLQSSGLYSLKSVVTVPSSSLGTQTYICNVNHKPSNTKVDKKV[left out - human IgG1 Fc with R292C N297G V302C K370D K392D K409D (EU numbers)]
light 2: B1 light 2
heavy 2: [left out - about 100 residues]DRTGYSISWSSYYYYYGMDVWGQGTTVTVSSASTKGPSVFPLAPSSKSTSGGTAALGCLVKDYFPEPVTVSWNSGALTSGVHTFPAVLQSSGLYSLESVVTVPSSSLGTQTYICNVNHKPSNTKVDKKVEPKSCDKTHTCPPCPAPELLGGPSVFLFPPKPKDTLMISRTPEVTCVVVDVSHEDPEVKFNWYVDGVEVHNAKTKPCEEQYGSTYRCVSVLTVLHQDWLNGKEYKCKVSNKALPAPIEKTISKAKGQPREPQVYTLPPSRKKMTKNQVSLTCLVKGFYPSDIAVEWESNGQPENNYKTTPPVLKSDGSFFLYSKLTVDKSRWQQGNVFSCSVMHEALHNHYTQKSLSLSPGK
B4: iPS:327110 (bispecific antibody, human IgG1, kappa, lambda, N297G)
light 1: B2 light 1
heavy 1: QVQLQESGPGLVKPSQTLSLTCTVSGGSISSGGYYWSWIRQHPGKGLEWIGYIYYSGNTYYNPSLKSRVTISGDTSKNQFSLKLRSVTAADTAVYYCTRGGAARGMDVWGQGTTVTVSSASTKGPSVFPLAPSSKSTSGGTAALGCLVKDYFPEPVTVSWNSGALTSGVHTFPAVLQSSGLYSLKSVVTVPSSSLGTQTYICNVNHKPSNTKVDKKV[left out - human IgG1 Fc with R292C N297G V302C K370D K392D K409D (EU numbers)]
light 2: B1 light 2
heavy 2: [left out - about 100 residues]DRTGYSISWSSYYYYYGMDVWGQGTTVTVSSASTKGPSVFPLAPSSKSTSGGTAALGCLVKDYFPEPVTVSWNSGALTSGVHTFPAVLQSSGLYSLESVVTVPSSSLGTQTYICNVNHKPSNTKVDKKVEPKSCDKTHTCPPCPAPELLGGPSVFLFPPKPKDTLMISRTPEVTCVVVDVSHEDPEVKFNWYVDGVEVHNAKTKPCEEQYGSTYRCVSVLTVLHQDWLNGKEYKCKVSNKALPAPIEKTISKAKGQPREPQVYTLPPSRKKMTKNQVSLTCLVKGFYPSDIAVEWESNGQPENNYKTTPPVLKSDGSFFLYSKLTVDKSRWQQGNVFSCSVMHEALHNHYTQKSLSLSPGK
B5: iPS:327267 (bispecific antibody, human IgG1, kappa, lambda)
light 1: B1 light 1
heavy 1: QVQLQQSGPGLVKPSQTLSLTCAISGDSVSSNSATWNWIRQSPSRGLEWLGRTYYRSKWSNHYAVSVKSRITINPDTSKSQFSLQLNSVTPEDTAVYYCARGTWKQLWFLDHWGQGTLVTVSSASTKGPSVFPLAPSSKSTSGGTAALGCLVKDYFPEPVTVSWNSGALTSGVHTFPAVLQSSGLYSLKSVVTVPSSSLGTQTYICNVNHKPSNTKVDKKV[left out - human IgG1 Fc with changes]
light 2: B1 light 2 with P7S, F50L, A75T
heavy 2: [left out - about 100 residues]DRTGYSISWSSYYYYYGMDVWGQGTTVTVSSASTKGPSVFPLAPSSKSTSGGTAALGCLVKDYFPEPVTVSWNSGALTSGVHTFPAVLQSSGLYSLESVVTVPSSSLGTQTYICNVNHKPSNTKVDKKVEPKSCDKTHTCPPCPAPELLGGPSVFLFPPKPKDTLMISRTPEVTCVVVDVSHEDPEVKFNWYVDGVEVHNAKTKPCEEQYGSTYRCVSVLTVLHQDWLNGKEYKCKVSNKALPAPIEKTISKAKGQPREPQVYTLPPSRKEMTKNQVSLTCLVKGFYPSDIAVEWESNGQPENNYKTTPPVLKSDGSFFLYSKLTVDKSRWQQGNVFSCSVMHEALHNHYTQKSLSLSPGK

How the values were obtained:
[1] = molecular target: human CGRP receptor (human, UniProt Q16602 23-461; O60894 27-148); assay: cell-based or functional assay
Sequence of UniProt Q16602 (Q16602 23-461 limits assumed, chain 1 of 2): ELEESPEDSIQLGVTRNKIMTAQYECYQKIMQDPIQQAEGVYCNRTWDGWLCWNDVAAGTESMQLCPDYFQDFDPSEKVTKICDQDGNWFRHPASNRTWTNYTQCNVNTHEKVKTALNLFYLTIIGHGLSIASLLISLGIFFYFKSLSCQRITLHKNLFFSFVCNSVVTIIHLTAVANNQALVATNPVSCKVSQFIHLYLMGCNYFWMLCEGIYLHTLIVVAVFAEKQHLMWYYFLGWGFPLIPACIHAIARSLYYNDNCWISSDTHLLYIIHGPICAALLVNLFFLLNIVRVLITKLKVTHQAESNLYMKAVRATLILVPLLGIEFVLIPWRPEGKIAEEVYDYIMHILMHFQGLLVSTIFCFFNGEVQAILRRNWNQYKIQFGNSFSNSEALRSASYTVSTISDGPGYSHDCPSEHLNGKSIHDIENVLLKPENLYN
Sequence of UniProt Q16602 (O60894 27-148 limits assumed, chain 2 of 2, further chain): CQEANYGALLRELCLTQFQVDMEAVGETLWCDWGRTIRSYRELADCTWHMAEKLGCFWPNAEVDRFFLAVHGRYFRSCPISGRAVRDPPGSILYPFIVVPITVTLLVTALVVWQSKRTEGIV

[2] = molecular target: T1, human PAC1 receptor (human, UniProt P41586 21-468); assay: cell-based or functional assay
T1 sequence: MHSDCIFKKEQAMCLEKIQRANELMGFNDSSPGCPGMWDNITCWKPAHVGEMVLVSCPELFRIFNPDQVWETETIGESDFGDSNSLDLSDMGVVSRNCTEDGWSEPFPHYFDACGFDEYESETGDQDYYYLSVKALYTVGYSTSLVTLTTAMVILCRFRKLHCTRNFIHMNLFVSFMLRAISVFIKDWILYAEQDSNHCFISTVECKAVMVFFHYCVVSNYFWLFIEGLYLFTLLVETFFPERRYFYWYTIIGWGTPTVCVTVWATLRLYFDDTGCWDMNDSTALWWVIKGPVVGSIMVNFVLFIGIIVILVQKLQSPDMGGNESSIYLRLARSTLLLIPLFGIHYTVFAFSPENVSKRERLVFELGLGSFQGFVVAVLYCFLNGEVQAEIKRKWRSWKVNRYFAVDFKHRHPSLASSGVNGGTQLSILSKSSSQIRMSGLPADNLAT

Binder | % inhibition of human CGRPR [1] [%] | % inhibition of human PAC1 [2] [%]
B1 | 70 | 58
B2 | 74 | 47
B3 | 73 | 82
B4 | 80 | 71
B5 | 75 | 29

Reference: patent publication US20170306033A1 (Amgen, published 2017)
